Measurements taken from the RNAGym collection of RNA variant scans (doi:10.1073/pnas.2313332121).
Variants at the floor of the assay are shown more often than the library holds them.

B1: TPR 5TU (parent)
chain: GGAUCUUCUCGAUCUAACAAAAAAGACAAAUCUGCCACAAAGCUUGAGAGCAUCUUCGGAUGCAGAGGCGGCAGCCUUCGGUGGCGCGAUAGCGCCAACGUUCUCAACUAUGACACGCAAAACGCGUGCUCCGUUGAAUGGAGUUUAUCAUG

Variants of: B1
Assay: polymerase ribozyme fitness, log enrichment relative to wild type (log ratio); higher = more active; in vitro selection for triplet polymerase activity
Procedure, shortened: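 Each subunit of a heterodimeric triplet polymerase ribozyme was represented by a PCR-built, transcribed mutant library that underwent triplicate single-round in vitro selection with frozen incubation at −7 °C. Extended constructs were recovered by gel excision, streptavidin-bead capture and RT-PCR, and Illumina sequencing of input and output libraries kept genotypes with ≥10 input reads and ≥1 read per output. Fitness is the logarithm of genotype enrichment relative to wild-type enrichment, from inverse-variance-weighted replicate averages, with a logarithm base of 2.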

| Variant | polymerase ribozyme fitness (log ratio) |
| --- | --- |
| GGCUCUUCUCGAUCUAACAAAUAAGACAAAUCUGCCACUAAGCUUGAGCGCAUCUUCGGAGGCAGAGGCGGCAGCCUUCGGUGGCGCCAUAGCGCCAACGUUCUCAACUAUGACACGCAAAACGCGUGCUCCGUUGAAUGGAGUUUAUCAUG | ≤ -4.2 |
| GGCUGUUCUCGAUCUAACAAAAAAGACAAAUCUGCCAGAGAGCUUGAGGGCAUCUUCGGUUGCAGAGGCGGCAGCCUUCGGUGGCGCGAUAGAGCCAACGUUCUCAACUAUGACACGCAAGACGCGUGCUCCGUUGAAUGGAGUUUAUCAUG | ≤ -4.2 |
| GGCUCUUCUGGAUCUAACAAAAAAGACAAAUCUGCCACAAAGCUUGAGAGCAUCUUAGGAUGCAGAGGCGGCAGCCUUCGGUAGCGCGAUAGCGCCAACGUUCUCAACUAUGACACGCAAAACGCGUGCUCCGUUGAAUGGAGUUUAUCAUG | -3.78 |
| GGCUCUUCUCGAUCUAUCAAAAAAGACAAAUCUGCCACAAAGCUUGAGAUCAUCUUCGGAUGCAGAGGCGGCAGCCUUCGGUGGUGCGAUAGCGCCAACGUUCUCAAUUAUGACACGCAAAACGCGUGCUCCGUUGAAUGGAGUUUAUCAUG | ≤ -4.2 |
| GGCUCUUCUCGAUCUAACAACAAAGACCAAUCUGCCACAAAGCUUGAGAGCAUCUUCGGAUGCAGAGGCGGCAGCCUUCGGUGGCGCGAUAGCGCCAACGUUCUCAACUAUGACACGCAAAACGAGUGCUCCGUUGAAUGGAGUUUAUCAUG | ≤ -4.2 |
| GGCUCUUCUCGAUCUAACAAAAAAGACAAAUCUGCCCCAAAGCUUGAGAGCAUCUUCGGAUGCAGAGGCGGGAGCCUUCGGUGGCGCGAUAGCGGCAACGUUCUCAACUACGACACGCAAAACGCGUGCUCCGUUGAAUGGAGUUUAUCAUG | ≤ -4.2 |
| GGCUCUUCUCGAUCUAACAAAAAAGACAAAUCUGCCACAAAGCUUCAGGGCAUCUUCGGAUGCAGAGGCGGCAGCCUUCGGUGGCGCGAUAACGCCAACGUUCGCAACUAUGUCACGCAAAACACGUGCUCCGUUGAAUGGUGUUUAUCAUG | ≤ -4.2 |
| GGCUCUUCUCGAUCUAACAAAAAAGACAAAUCUGCCACAAAGUUUGAGAGCAUCUUCGGAUGCAGACGCGGCAGCCUUCGGUGGCACGAUAGCGCCAACGUUCUCAACUAUGACACGCAAAACGCGUGCUCCGUUGAAUGGAGUUUAUCAUG | ≤ -4.2 |
| GGCUCUUCUCGAUCUAACGAAAAAGACAAAUCUGCCACAAAGCUUGAGGGCAUCUUCGGAUGCAGAGGCGGCAGCCUUCGGUGGCGCGAUAGUGCCAACGUUCUCAACUAUGACACGCAAAACGCAUGCUCCGUUGAAUGGAGUUUAUCAUG | ≤ -4.2 |
| GGCUCUUCUCGAUCUAACAAACAAGACAAAUCUGCCACAAAGCUUGAGAUCAUCUUCGGAUGCAGAGGCGGCAGCCUUCGGUGGGGCGAUAGCGCCAACGUUCUCAACUAUGACACGCAAUACGGUUGCUCCGUUGAAUGGAGUUUCUCAUG | ≤ -4.2 |
| GGCUCUUCUCGAUCUAACAAAAAAUACAAAUCUGCCACAAAGCUUGAGAGCAUCUUUGGAUGCAGAGGCGGCAGCCUUCGAUGGCGCGAUAGCGCCAACGUUCUCAACUAUGACACGCAUAACGCCUGCUCUGGUGAAUGGAGUUUAUCAUG | ≤ -4.2 |
| GGCUCUUCUCGAUCUAACAAAAAAGACAAAUCUGCCACAAAGCUUGAGAGCAUCUUCCGAUGCAGAGGCGGCAGCCUUCGGUGGCGCGAUAGCGGCAACGUUCUCAACUAUGACACGCAAAACGCGUGAUCCGUUGAAUGGCGUUUAUCAUG | ≤ -4.2 |
| GGCUCUUCUCGAUCUGACAAAAAUGACAAAUCUGCCACACAGCUUGAGAGCAUCUUCGGAUGCAGAGGCGGCAGCCUUCGGUGGCGCGAUGGCGCCAACGUUCUCAACUAUGACACGCAAAACGCGUGCUCCGUUGAAUGGAGUUUAUCAUG | ≤ -4.2 |
| GGCUCUUCUCGUUCUAACAAAAAAGACAAAUCUGCCACAAAGCUUGAGAGCAUCUACGGAUGCAGAGGCGGCAGCCUUCGGUGGCGCGAUAGAGCCAUCGUUCUCAGCUAUGACACGCAAAACGCGUGUUCCGUUGAAUGGAGUUUAUCAUG | ≤ -4.2 |
| GGCUGUUCUCGAUUUAACAUAAAAGACAAAUCUGCAACAAAGCUUGAGAGCAUAUUCGGAUGCAGAGGCGGCAGCCUUCGGUGGGGCUAUAGCGCCAGCGUUCUCAACUAUGACACGCAAAACGCGUGCUCCGUUGAAUGGAGUUUAUCAUG | ≤ -4.2 |
| GGCUCUUCUCGAUCUAACAAAAAAGACAAAUCUGCCACAAAGCUUGAGAGCAUCUUCGGAUGCAGAGGCGGCAGCCUUCGGUGGCGCGAUAGUGCCAACGUUCUCAACUAUGACACGCACAACGCGUGCUCCAUUGAAUGGAGUUUAUCAUG | ≤ -4.2 |
| GGCUCUUCUCUAUCUAACAAAAAAGACAAAUCUGCCACAAAGCUUGAGAGCAUCUUCGGAUGUAGAGGCGGCAGCAUUCGGUGGCGGGAUAGCGCCAACGUUCUCAACUAUGACACGCAAAACGCGUGCUCCGUUGAAUGGAGUUUAUCAUG | ≤ -4.2 |
| GGCUCUUCUCGAUCUAACAAAAAAGACAAAUCUGCCACAAAGCUUGAGAGCAUCUUCGGAUGCAGAGGCGGCAGCCUUCGGUGGUGCGAUAGCGCCAACGUUCUCAACUAUGACACGCAAAACGCGUGCUCCGUUGAAUGCAGUUUAUCAUG | -2.07 |
| GGCUCUUCUCGAUCUAACAAAAAAGACUAAUCUGCCACAAAGCUUGAGAGCCUCUUCGGAUGCAGAGUCGGCAGCCUUCGGUGGCGCGAUGGCGCCAACGUUCUCAACUAUGAAACGCAAAACGCGUGCUCCGUUGAAUGGAGUUUAUCAUG | ≤ -4.2 |
